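Dose response: 5 concentrations. Exposure: 48 h. Format: 96-well plates. Endpoint: linear interpolation; highest concentration if not reached. GI50 marks 50% less growth.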 The source made the active and inactive calls. Cut-off read from the data, not from the text of the source: active = GI50 up to about 1.1 µM and inactive = higher. Peptide text beside a SMILES is read from it. * marks the point of attachment. Cbz = O=C(OCc1ccccc1)*; NHNH2 = NN*
Tested on: NCI-H322M
Assay: DTP human tumour cell line panel, 48 h

Row | SMILES | GI50
1 | Cc1ccc(-c2cn3c(nc4ccccc43)c(-c3ccccc3)n2)cc1 | inactive: > 100 µM
2 | CC(C)=CCC[C@]1(C)CC[C@]2(C)C3CCC(=C(C)C)[C@@H](CCCO)[C@]3(C)CC[C@@]2(C)C1 (stereo partly drawn) | inactive: > 100 µM
3 | CCOC(=O)c1c(-c2cccc(Cl)c2)c(C(=O)OC)c(C)c2sc(C=O)nc12 | inactive: 14.9 µM
4 | COc1ccc(-c2cc(-c3ccccc3)n(C3OC(COC(C)=O)C(OC(C)=O)C(OC(C)=O)C3OC(C)=O)c(=S)c2C#N)cc1 (stereo not drawn) | inactive: 13.5 µM
5 | Cc1ccnc(NC(=S)Nc2cccc(Cl)c2)c1 | inactive: > 100 µM
6 | CCCCCCCCCCCCCCCCCCNc1ccn(C2OC(COP(=O)(O)OCCCCCCCCCCCCCCCC)C(O)C2O)c(=O)n1 (stereo not drawn) | inactive: > 100 µM
7 | Cc1ccc(NC(=O)C(=O)C2C(=O)C3=C(CC2(C)C)NC2C=CC=CC2S3)c(C)c1 (stereo not drawn) | inactive: > 100 µM
8 | CCC1=CCN(c2cc(C)ccn2)OC1c1ccc(OC)cc1 (stereo not drawn) | inactive: 60.4 µM
9 | CC(=O)/C(=C\n1c(=S)[nH]c2ccc([N+](=O)[O-])cc21)C(=O)Nc1ccccc1C | inactive: > 100 µM
10 | COc1ccccc1NC(=O)CC(=O)N1N=C(N2c3ccccc3Sc3ccccc32)CC1c1ccccc1 (stereo not drawn) | inactive: > 100 µM
11 | COc1cc2c(c(C)c1O)[C@H]1COc3ccccc3[C@H]1O2 | inactive: 30.8 µM
12 | Cc1cc(O)nc(NNC(C#N)c2ccc(O)cc2)n1 (stereo not drawn) | inactive: > 100 µM
13 | C=C=C(CC(CC(=C)Br)(C(=O)OC)C(=O)OC)S(=O)(=O)c1ccccc1 | inactive: 12.7 µM
14 | c1ccc(Cc2cccc3cc(-c4ccc(-c5ccccc5)cc4)[nH]c23)cc1 | inactive: > 100 µM
15 | C=CCCC1(CC(Sc2ccccc2)P(=O)(c2ccccc2)c2ccccc2)OCCO1 (stereo not drawn) | inactive: > 10 µM
16 | CCc1ccc(Cc2ccc(CC)c(NC(=O)C(=O)Cc3nc4ccccc4nc3C)c2CC)c(CC)c1NC(=O)C(=O)Cc1nc2ccccc2nc1C | inactive: 53.8 µM
17 | Cc1ccc2c(c1)Nc1cc(C(F)(F)F)ccc1[PH]2=O (stereo not drawn) | inactive: 63.7 µM
18 | N#C/C(=C\c1ccc2ccccc2c1)C(=O)c1ccccc1 | inactive: > 100 µM
19 | Cc1cc(O)c(C(C)C)cc1CN1CCCCC1 | inactive: > 100 µM
20 | O=C(/C=C/c1ccccc1)c1cc(C(=O)/C=C/c2ccccc2)c(O)cc1O | inactive: > 100 µM
21 | c1ccc2c(c1)Sc1ccccc1N2CCCN1c2ccccc2Sc2ccccc21 | inactive: > 100 µM
22 | CC(=O)OC[C@]12CCC3[C@@]4(C)CCCC(C)(C)C4CC[C@@]3(C)C1CC(C1=CC(=O)OC1O)O2 (stereo partly drawn) | inactive: 2.23 µM

Row | SMILES | GI50
23 | Cc1ccc2nnc(NS(=O)(=O)c3cc(C)c(Cl)cc3S)n2n1 | inactive: > 100 µM
24 | CC(C)OP(=O)(OC(C)C)/C(=N/Nc1ccc([N+](=O)[O-])cc1)NNC(=O)c1ccccc1 | inactive: 60.8 µM
25 | O=CN/C=C/c1ccc(O)c(O)c1 | inactive: > 100 µM
26 | COc1ccccc1C(=O)c1ccc2ccccc2c1 | inactive: 27.7 µM
27 | Cc1cccc(NC2=NC(=O)C(CC(=O)Nc3cccc(C)c3C)S2)c1 (stereo not drawn) | inactive: > 100 µM
28 | NC(=O)N/N=C/c1ccccc1O | inactive: > 100 µM
29 | CCOC(=O)C1=C(C)N2CCOC2(C)C(C(=O)OC)C1c1cccc(Cl)c1 (stereo not drawn) | inactive: > 100 µM
30 | CC(=O)Oc1c(C)c2c(c3ncccc13)OC(C)C2 (stereo not drawn) | inactive: 16.4 µM
31 | O=C1C(Cl)N(c2ccc([N+](=O)[O-])cc2)C1c1c[nH]c2ccccc12 (stereo not drawn) | inactive: > 100 µM
32 | O=C(O)Cc1cccc2c1OC(c1ccccc1)C(C(=O)c1ccccc1)C2=O (stereo not drawn) | inactive: 57.9 µM
33 | CSc1ccc2c(cc1=O)[C@@H](NC(=O)c1ccc(Cl)cc1)CCc1cc(O)c(O)c(O)c1-2 | inactive: 65.9 µM
34 | CC(=O)OCC1OC(NC(=S)Nn2c(=O)[nH]c3ccccc3c2=O)C(OC(C)=O)C(OC(C)=O)C1OC(C)=O (stereo not drawn) | inactive: > 100 µM
35 | CCCCNC(=S)Nn1c(-c2ccccc2)nc2ccccc2c1=O | inactive: > 100 µM
36 | CCSC(SCC)c1cc2c(cc1Br)OCO2 | inactive: 21.1 µM
37 | CCOC(=O)c1c(NC(=S)NCc2ccccc2)sc2c1CCN(C)C2 | inactive: > 100 µM
38 | Cc1ccc(C(=O)CC2=Nc3nnc(CCCCCCCc4nnc5n4C(=O)C(CC(=O)c4ccc(C)cc4)=N5)n3C2=O)cc1 | inactive: > 100 µM
39 | COC(=O)CC(NC(=O)OCc1ccccc1)C(=O)NC(CC(=O)OC)C(=O)NC(CC(=O)OC)C(=O)NC(CC(=O)OC)C(=O)NC(CC(=O)OC)C(=O)NC(CC(=O)OC)C(=O)NN (stereo not drawn) (Cbz-D(OMe)D(OMe)D(OMe)D(OMe)D(OMe)D(OMe)-NHNH2; configuration not given here) | inactive: > 100 µM
40 | CC(C)NC(=O)OCc1c(COC(=O)NC(C)C)c(-c2ccc[n+](COC(=O)C(C)C)c2)n2c1CCC2 | inactive: 97.9 µM
41 | Cc1cc([N+](=O)[O-])c(C)c2c1[nH]c1ccc(O)cc12 | inactive: > 100 µM
42 | CN(CCN1CCCC1)C1CCc2cc(Cl)c(Cl)cc2C1 (stereo not drawn) | inactive: 16.1 µM
43 | N#CCCN(CCCN(C(=O)N(c1ccccc1)c1ccccc1)c1ccccc1)C(=O)Nc1ccccc1 | inactive: > 100 µM
44 | O=C(O)c1c[nH]c2c(ccc3ncccc32)c1=O | inactive: > 100 µM

Row | SMILES | GI50
45 | C=C1C(=O)O[C@H]2[C@H]3O[C@@H](C[C@@H]12)[C@@]1(C)CC[C@H](O1)[C@H](C)CCC[C@H]3C | inactive: 3.56 µM
46 | CC(=O)c1ccc(N2CCN(C3=CC(=O)c4c(O)ccc(O)c4C3=O)CC2)cc1 | inactive: 24.8 µM
47 | Cc1ccc(C2=NO[C@@H]3C(=O)N(c4ccc(Cc5ccc(N6C(=O)[C@H]7C(c8ccc(C)cc8)=NO[C@H]7C6=O)cc5)cc4)C(=O)[C@H]23)cc1 | inactive: > 100 µM
48 | NC(=O)NCCCC(NC(=O)OCCCCCCn1ccc(=O)[nH]c1=O)C(=O)O (stereo not drawn) | inactive: > 100 µM
49 | CC(C(=O)ON1C(=O)CCC1=O)c1ccc(C(=O)c2ccccc2)s1 (stereo not drawn) | inactive: > 100 µM
50 | O=C(c1ccco1)N(C(=S)N1CCN(c2ccccc2)CC1)C1CCCCC1 | inactive: > 100 µM
51 | CC(C)N(C(=O)C12C3C4C1C1C4(C#N)C3C12C#N)C(C)C (stereo not drawn) | inactive: > 100 µM
52 | COc1cc2c(cc1C)[n+]([O-])c(C)c(C(=O)C/C(=N/NC(=O)C[N+](C)(C)C)C(=O)Nc1cccc(Cl)c1C)[n+]2[O-] | inactive: > 100 µM
53 | O=C(N/N=C\c1ccc([N+](=O)[O-])cc1)c1ccccc1Nc1ccccc1C(=O)N/N=C/c1ccc([N+](=O)[O-])cc1 | inactive: > 100 µM
54 | C=CCN1C(=O)/C(=C/c2ccc(OC)cc2)NC1=S | inactive: 78.2 µM
55 | Oc1ccc2c(O)cc(-c3ccccc3)nc2c1 | inactive: 31.9 µM
56 | Cc1ccc(/N=N/c2c(O)ccc3ccccc23)cc1 | inactive: > 100 µM
57 | Cc1cc(Br)cc(C)c1NC(=O)C(=O)C(C(=O)c1ccncc1)C1OC(=O)c2ccccc21 (stereo not drawn) | inactive: > 100 µM
58 | CCOC(=O)c1cccc(NC(=O)CCl)c1 | inactive: 2.21 µM
59 | CC(C)C1CC(CO)(CNc2cc(Cl)nc(N)n2)C1 (stereo not drawn) | inactive: > 100 µM
60 | O=C(O)CCSC(=O)Nc1ccccc1F | inactive: > 100 µM
61 | Cc1ccc(C2=C(c3ccccc3)C(Br)(c3ccc(C)cc3)C(c3ccccc3)=C2c2ccc(C)cc2)cc1 | inactive: > 100 µM
62 | CC(Cc1ccccc1)Nc1ncnc2c1ncn2C1OC(CO)CC1O (stereo not drawn) | inactive: > 100 µM
63 | COc1ccc(-c2cc(=O)c3c(O)cc(O)cc3o2)c(OC)c1OC | inactive: > 100 µM
64 | C[C@@H]1CC[C@H]2[C@H]1[C@H]1[C@@H](CC[C@]2(C)N=C=S)C1(C)C | inactive: 26.8 µM
65 | Cc1c(C(=O)C/C(=N/NC(=O)c2ccccc2O)C(=O)Nc2ccccc2C(C)C)[n+]([O-])c2ccccc2[n+]1[O-] | inactive: 40.6 µM
66 | CCOC(=O)CC1C(O)C(=O)N(C)C1c1ccccc1 (stereo not drawn) | inactive: > 100 µM

Row | SMILES | GI50
67 | O=C(OC[C@H]1C[C@H]2C(=O)OCCC[C@H]2O1)c1ccccc1 | inactive: > 100 µM
68 | CC(C)CCCC(C)[C@H]1CC[C@H]2n3c(nc4ccccc43)CCC[C@]12C (stereo partly drawn) | inactive: 19.4 µM
69 | Cc1nnc(Sc2nc(C#N)c(C#N)nc2Sc2nnc(C)s2)s1 | inactive: 19 µM
70 | COc1ccc(/C=N/n2c(Cc3ccc(Cl)cc3)n[nH]c2=O)cc1 | inactive: 28.4 µM
71 | CNC(=O)C1OC(n2cnc3c(NCc4cccc(I)c4)nc(Cl)nc32)C(O)C1O (stereo not drawn) | inactive: 14.6 µM
72 | O=C(NCCCCCCO)c1cccc2cc3ccccc3nc12 | inactive: 22.1 µM
73 | O=C1OC(c2ccc([N+](=O)[O-])cc2)=N/C1=C\c1ccc(Cl)cc1 | inactive: > 100 µM
74 | CCC(=O)O[C@H]1CC[C@H]2[C@@H]3CCC4=CC(=O)C=C[C@]4(O)[C@H]3CC[C@]12C | inactive: 43.3 µM
75 | COc1ccc(-c2cc(O)c3ccc(F)cc3n2)cc1 | inactive: > 100 µM
76 | COc1ccc(CCn2nccc2C)cc1 | inactive: > 100 µM
77 | O=c1[nH]cnc2c1ncn2[C@H]1CO[C@@H](CO)[C@@H]1O | inactive: > 100 µM
78 | CC[C@@H]1C[C@@H](O)[C@@H]2[C@H](O)[C@H](O)CN2C1 | inactive: > 100 µM
79 | COc1ccc(OC)c(-c2cc(=O)c3c(OC)c(OC)c(OC)c(OC)c3o2)c1 | inactive: 35.7 µM
80 | Cc1cc(S(=O)(=O)N=C2NCC(C)(C)CN2)c(S)cc1Cl | inactive: 41.8 µM
81 | Cn1c2c(c3ccccc31)CCN1C(=O)C3SC21C1C(=O)N(c2ccccc2)C(=O)C31 (stereo not drawn) | inactive: > 100 µM
82 | c1ccc(C2(c3cc4ccccc4[nH]3)OCCO2)cc1 | inactive: 32 µM
83 | CCCNC(=O)Cn1c(C)cc2ccccc21 | inactive: > 100 µM
84 | CCOC(=O)C(C)(C)Oc1ccc2c(C)c(-c3ccc(Cl)cc3)c(=O)oc2c1 | inactive: > 100 µM
85 | Nc1ccc2c(c1)C(=O)N(O)C2=O | inactive: > 100 µM
86 | CO[C@H](c1ccccc1)[C@H](C)N(C)c1ccc2ccccc2c1C1=NC(C)(C)CO1 | inactive: 23.4 µM
87 | COc1ccc(C(=O)C#Cc2cnc(O)nc2O)cc1 | inactive: 17.5 µM
88 | O=C(Nc1ccccc1F)c1cc2ccc(O)cc2o/c1=N\c1cccc(C(F)(F)F)c1 | inactive: 3.12 µM

Source: ChEMBL document CHEMBL1201862, “PubChem BioAssay data set” (2004)
